{"source": "the supplement of paper PMC7826260", "note": "Some of the results follow. Each Rep nickase domain was tested in vitro on the same pool of single strands (3 µM enzyme, 1 h, 37 °C); shown is the middle of each 90-letter strand. The score is log2 (uncut reads / reads without enzyme); more negative means more cut, near 0 not cut, and no call is made. Counts are relative to all reads, so uncut sequences can rise above 0 when many others are cut."}
{"system": "T1, Rep nickase domain of tomato golden mosaic virus", "T1 sequence (Rep 1-124, printed without the tag)": "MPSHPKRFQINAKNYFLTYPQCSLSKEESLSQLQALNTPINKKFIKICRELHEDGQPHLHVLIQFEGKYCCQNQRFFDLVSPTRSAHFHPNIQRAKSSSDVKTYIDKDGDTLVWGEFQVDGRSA", "test": "uncleaved DNA left, log2 of reads against the no-enzyme library (log2 ratio); higher = less cleavage (more negative = more Rep cleavage of the k-mer); sequences stand for … in CTCGTCCG…ACCGGAGA", "description": "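A pool of 90-nt single-stranded DNAs with seven random bases just before the constant AC of the nick site (name = the seven bases) was cut by 3 µM recombinant His6-SUMO-tagged Rep nickase domain (300 nM DNA, 50 mM HEPES pH 8.0, 50 mM NaCl, 1 mM MnCl2, 1 h, 37 °C, three replicates). Uncut DNA was amplified and sequenced.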"}
{"sequence": "TTTCACT", "uncleaved DNA left (log2)": -0.107}
{"sequence": "CGAAGCT", "uncleaved DNA left (log2)": 0.00263}
{"sequence": "GTGACAG", "uncleaved DNA left (log2)": -0.00669}
{"sequence": "CGGACAT", "uncleaved DNA left (log2)": -0.226}
{"sequence": "TCCAGGT", "uncleaved DNA left (log2)": 0.101}
{"sequence": "ACTCGTC", "uncleaved DNA left (log2)": -0.1}
{"sequence": "TATTCAC", "uncleaved DNA left (log2)": -0.174}
{"sequence": "CTGCGAG", "uncleaved DNA left (log2)": -0.133}
{"sequence": "GTTGTTT", "uncleaved DNA left (log2)": 0.112}
{"sequence": "TAATTCG", "uncleaved DNA left (log2)": -0.0186}
{"sequence": "TGCAATA", "uncleaved DNA left (log2)": 0.0442}
{"sequence": "TTTCCAT", "uncleaved DNA left (log2)": -0.191}
{"sequence": "CTTCTTT", "uncleaved DNA left (log2)": -0.143}
{"sequence": "GGCCTGG", "uncleaved DNA left (log2)": 0.157}
{"sequence": "AATCCAT", "uncleaved DNA left (log2)": -0.0756}
{"sequence": "GTGACCT", "uncleaved DNA left (log2)": 0.0128}
{"sequence": "CCGCCAC", "uncleaved DNA left (log2)": -0.0103}
{"sequence": "TAGCTTT", "uncleaved DNA left (log2)": -0.267}
{"sequence": "CATTGAG", "uncleaved DNA left (log2)": 0.048}
{"sequence": "ACCCCTA", "uncleaved DNA left (log2)": 0.0685}
{"sequence": "GGCCATC", "uncleaved DNA left (log2)": -0.0114}
{"sequence": "CAGCTAG", "uncleaved DNA left (log2)": -0.198}
{"sequence": "CGAAACT", "uncleaved DNA left (log2)": 0.0233}
{"sequence": "CTTCATG", "uncleaved DNA left (log2)": -0.0583}
{"sequence": "ACGTTGC", "uncleaved DNA left (log2)": 0.0876}
{"sequence": "TATCGGT", "uncleaved DNA left (log2)": 0.0594}
{"sequence": "GGTGAAG", "uncleaved DNA left (log2)": 0.137}
{"sequence": "CGTTACA", "uncleaved DNA left (log2)": 0.0158}
{"sequence": "TTGCGGT", "uncleaved DNA left (log2)": 0.0851}
{"sequence": "CCTTTGC", "uncleaved DNA left (log2)": -0.0447}
{"sequence": "TTGAGCA", "uncleaved DNA left (log2)": -0.0723}
{"sequence": "GCCGCGC", "uncleaved DNA left (log2)": -0.00979}
{"sequence": "TACTATA", "uncleaved DNA left (log2)": -0.0772}
{"sequence": "TCTAACT", "uncleaved DNA left (log2)": -0.182}
{"sequence": "CGGATAC", "uncleaved DNA left (log2)": 0.0519}
{"sequence": "ATCCGGC", "uncleaved DNA left (log2)": -0.192}
{"sequence": "TCCGGCT", "uncleaved DNA left (log2)": -0.0443}
{"sequence": "ACTGCCT", "uncleaved DNA left (log2)": 0.121}
{"sequence": "TTCTCAG", "uncleaved DNA left (log2)": -0.000216}
{"sequence": "ATATTGC", "uncleaved DNA left (log2)": -0.0729}
